Experimental data as given in PubChem BioAssay AID686979 (National Center for Advancing Translational Sciences (NCATS), 2013).
Screen size: about 420,000 compounds; about 50,000 (12%) were called active. This list was built around the results that the source calls inconclusive (neither active nor inactive); the mix of calls is not that of the screen. Calls come from the whole dose curve; as a rule, active = well fitted inhibition curve with a large enough effect; inconclusive = small, poorly fitted or top-dose-only effect; inactive = flat fitted curve, though single readings scatter. No potency is given beside an inconclusive call; the fits are too rough.
% is set by controls: 0 for no effect and ±100 for the full control effect; potency is the fitted concentration of half-maximal effect; tags give direction and shape of the fitted curve.

Assay: qHTS for Inhibitors of human tyrosyl-DNA phosphodiesterase 1 (TDP1): qHTS in cells in presence of CPT; note: nearly all actives have a fitted effect of over 55% in size
Conditions: chicken DT40 Tdp1-/-;hTDP1 cells + 20 nM CPT, ATP luminescence, 48 h; activity change, negative = growth inhibition: at 46.2 µM (top of the series)
Outline: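 Chicken DT40 Tdp1-/- cells complemented with human TDP1, 400 cells/well, exposed to compounds plus 20 nM camptothecin for at least 48 h at 37 C; viability read as ATP content by CellTiter-Glo luminescence.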
In the case of COc1cc(/C=N/N=C2\CC3CCC2(C)C3(C)C)ccc1O (configuration not stated), the Potency is reported as “inactive”. In the case of O=[N+]([O-])c1ccccc1Oc1ccc(Cl)c2cccnc12, the Potency is reported as inconclusive [inhibitor, single point]. In the case of CC(C)(C)C1CCc2c(sc(NC(=O)c3cc(C4CC4)on3)c2C#N)C1 (configuration not stated), the Potency is reported as inconclusive [inhibitor, single point]. In the case of COc1ccc(C(CNC(=O)CSc2ccc(Br)cc2C)N2CCOCC2)cc1 (configuration not stated), the Potency is reported as inconclusive [inhibitor, single point]. With O=C(COC(=O)c1cccc(OC(F)F)c1)NCC1CCCO1 (configuration not stated) the Potency was “inactive”. For COCCNC(=O)C1(C)CCCN(Cc2cc(-c3ccccc3)nn2C)C1 (configuration not stated), the Potency was inconclusive [inhibitor, partial curve, poor fit]. In the case of Cc1ccc(S(=O)(=O)c2cn(C)c3cc(N4CCCC(C)C4)c(F)cc3c2=O)c(C)c1 (configuration not stated), the Potency is reported as active: 23.1 µM. In the case of CCCNC(=O)Nc1ccc(NC(C)=O)cc1, the Potency is reported as “inactive”. For Cc1cc(C)cc(N(C(C)C(=O)NCc2ccc3c(c2)OCO3)S(C)(=O)=O)c1 (configuration not stated), the Potency was “inactive”. With O=C(N/N=C/c1cccc2ccccc12)c1cc(C2CC2)[nH]n1 the Potency was inconclusive [inhibitor, single point]. For Cc1ccc(NC(=O)C2CCN(S(=O)(=O)c3c(C)noc3/C=C/c3ccco3)CC2)cc1C, the Potency was inconclusive [inhibitor, partial curve]. In the case of COc1ccc(CNCC(C)NCc2ccc(OC)c(OC)c2)cc1OC (configuration not stated), the Potency is reported as inconclusive [inhibitor, partial curve]. For Cc1ccc2c(c1)N(CC(=O)N1CCCCC1c1cccnc1)C(=O)CO2 (configuration not stated), the activity change, negative = growth inhibition was inconclusive: -17.3% [inhibitor]. In the case of COc1ccc(CCNC(=O)c2ccc(-c3cccc([N+](=O)[O-])c3)o2)cc1OC, the Potency is reported as inconclusive [inhibitor, single point]. In the case of CN(CCN1CCOCC1)Cc1nc(-c2ccc(Cl)cc2)no1, the Potency is reported as inconclusive [inhibitor, single point]. In the case of CCCCCNC(=O)C(c1cc2ccccc2o1)n1c(=O)c(-c2cc3ccccc3[nH]2)nc2ccccc21 (configuration not stated), the Potency is reported as inconclusive [inhibitor, single point]. In the case of COc1ccc(CNc2nc(-c3ccc4c(c3)OCO4)nc3ccccc23)c(OC)c1, the Potency is reported as inconclusive [inhibitor, single point]. In the case of O=C(c1cc(-c2ccc3c(c2)OCO3)on1)N1CCCCC1, the Potency is reported as “inactive”. In the case of CCC(C(=O)NCCCN(CC)Cc1ccccc1)n1nc(C)c2sc3ccccc3c2c1=O (configuration not stated), the Potency is reported as inconclusive [inhibitor, single point]. In the case of CCOC(=O)C(=N/O)/C(C)=N/NC(=O)C(=O)Nc1cc(Cl)ccc1Cl, the Potency is reported as inconclusive [inhibitor, single point]. In the case of COc1ccccc1OC(C)C(=O)N1CCN(Cc2ccc3c(c2)OCO3)CC1 (configuration not stated), the Potency is reported as “inactive”. For Cn1cc(-c2ccc(C(=O)Nc3cccc(Oc4ccccc4)c3)c3occc23)cn1, the Potency was “inactive”. For S=c1[nH]nc(Cc2ccccc2)n1-c1ccc(Cl)cc1, the Potency was “inactive”. For CCOC(=O)C(NC(=O)NC1CCCCC1)(c1ccccc1)C(F)(F)F (configuration not stated), the Potency was inconclusive [inhibitor, single point]. In the case of Cc1ccc(CN2CCc3nc(N4CCN(C)CC4)ncc3C2)s1, the Potency is reported as inconclusive [inhibitor, partial curve, poor fit]. With CC(=O)c1ccc(-n2nnnc2SCC(=O)Nc2cccc(NC(=O)c3ccco3)c2)cc1 the Potency was inconclusive [inhibitor, single point]. For O=C(NN=Cc1ccc2c(c1)OCO2)c1ccc([N+](=O)[O-])cc1, the Potency was “inactive”. With CCCCCCCCOC(=O)c1ccc(N)cc1 the Potency was inconclusive [inhibitor, single point]. In the case of COc1ccc(CNC(=O)C(=O)NCC2CCCN2S(=O)(=O)c2cccs2)cc1 (configuration not stated), the Potency is reported as inconclusive [inhibitor, partial curve]. In the case of CC/C(=N\OC(=O)c1ccc(OC(C)C)cc1)c1ccc(C)cc1, the Potency is reported as inconclusive [inhibitor, single point]. In the case of O=C(C(Cc1ccccc1)n1cccc1)N1CCN(c2ccccc2)CC1 (configuration not stated), the Potency is reported as active: 23.1 µM. In the case of Cc1cccc(N2C(=O)CC(Sc3nnc(C)s3)C2=O)c1 (configuration not stated), the Potency is reported as active: 5.17 µM. With COc1ccc2[nH]c(=O)c(-c3nnn(-c4ccc(Cl)nc4)n3)cc2c1 the Potency was active: 11.6 µM. For CCOC(=O)[C@]12CCCC=C1N(Cc1ccco1)C(=O)[C@H](CC(=O)N1CCCC1)C2, the Potency was “inactive”. For S=C(NCC1COc2ccccc2O1)Nc1ccc(Br)cc1 (configuration not stated), the Potency was inconclusive [inhibitor, single point]. With Cc1ccc(-n2ncc3c(N4CCC(Cc5ccccc5)CC4)ncnc32)cc1 the Potency was inconclusive [inhibitor, single point]. For COc1ccc(CNc2ccncc2)c(OC)c1OC, the Potency was inconclusive [inhibitor, full curve, poor fit]. For CCO/C(C)=C1\C(=O)N(CC)c2ccccc21, the Potency was inconclusive [inhibitor, single point]. With O=C(NCC1CCCO1)c1c[nH]c2ccc(S(=O)(=O)Nc3cccc(C(F)(F)F)c3)cc2c1=O (configuration not stated) the Potency was inconclusive [inhibitor, single point]. With CC1=C(C(=O)Nc2cccc(C(=O)NCC(C)c3ccccc3)c2)SCCO1 (configuration not stated) the Potency was active: 16.4 µM. In the case of COc1ccc(C2c3ccc4ccccc4c3Oc3ncn(CCN4CCOCC4)c(=N)c32)cc1OC (configuration not stated), the Potency is reported as active: 18.4 µM. For COC(=O)c1cc(CNC(=O)c2ccc3ncccc3c2)cc(NC(=O)c2ccccc2Cl)c1, the Potency was inconclusive [inhibitor, single point]. With O=C(Nc1ccccc1)Nc1ccc(C(=O)N2CCOCC2)cc1 the Potency was inconclusive [inhibitor, partial curve]. For OC(c1ccccc1)c1ncc(-c2cccc(F)c2)[nH]1 (configuration not stated), the Potency was “inactive”. In the case of CN1/C(=C/C(=O)c2nc(S(C)(=O)=O)ncc2Cl)C(C)(C)c2ccccc21, the Potency is reported as active: 0.58 µM. For FC(F)(F)c1cccc(N2CCN(C(=S)NCC3CCCO3)CC2)c1 (configuration not stated), the Potency was inconclusive [inhibitor, single point]. With COC(=O)C[C@@H]1C=C[C@H](NC(=O)Nc2ccc(OC)cc2)[C@@H](CO)O1 the Potency was “inactive”. For O=C(/C=C\c1ccccc1)Nc1ccc(NC(=O)c2ccco2)cc1, the Potency was active: 11.6 µM. With O=C1c2cccc(-c3ccc(C(F)(F)F)cc3)c2C2CC=CCN12 (configuration not stated) the Potency was inconclusive [inhibitor, single point]. With O=C(CCNS(=O)(=O)c1ccc(Cl)cc1)N1CCC2(O)CCCCC2C1 (configuration not stated) the Potency was inconclusive [inhibitor, full curve, poor fit]. With C[C@@]12CCC=C[C@H]1[C@H](c1ccc3ccccc3c1/C=C/c1ccccc1)N(Cc1ccccc1)C2=O the Potency was active: 2.06 µM. With CC(C)CCn1cnc2c(sc3nc4c(cc32)CSC(C)(C)C4)c1=O the Potency was inconclusive [inhibitor, full curve]. With COc1ccc(N(CC(=O)NCCSc2ccc(C)cc2)S(=O)(=O)c2ccccc2)c(OC)c1 the Potency was inconclusive [inhibitor, single point]. With CCC(C(=O)Nc1c(C)cccc1C)n1c(-c2ccc(-c3ccccc3)cc2)nc2ccccc21 (configuration not stated) the Potency was active: 14.6 µM. With COc1cccc(CNc2nc3cc(-c4ccccc4)sc3c(=O)n2C)c1OC the Potency was active: 16.4 µM. With O=C(CSc1cccc[n+]1[O-])Nc1ccccc1C(F)(F)F the Potency was “inactive”. In the case of COc1ccc2c(c1)c1c(c(=O)n(-c3ccccc3)c(=O)n1CC(=O)Nc1ccc(C)c(C)c1)n2C, the Potency is reported as “inactive”. In the case of CCCOP(=O)(c1ccc(N(C)C)cc1)C(Nc1ccccc1)c1ccc(N(C)C)cc1 (configuration not stated), the Potency is reported as active: 8.2 µM. With CCC1CCCCN1CCCNC(=O)C1CCN(Cc2nc(-c3ccc(Cl)cc3)oc2C)CC1 (configuration not stated) the Potency was active: 3.66 µM. In the case of Cc1cc(C(F)(F)F)c2c(=O)[nH]c(=O)n(Cc3ccccc3)c2n1, the Potency is reported as inconclusive [inhibitor, single point]. In the case of CC1Cc2cc(S(=O)(=O)N3CCCC(C(=O)N4CCCCC4)C3)ccc2N1C(=O)C1CC1 (configuration not stated), the Potency is reported as “inactive”. With Cn1cc(/C(Cc2ccccc2)=N\O)c2ccccc21 the Potency was active: 23.1 µM. With COc1ccc(Br)cc1CN(C)CC(=O)Nc1c(Cl)cccc1Cl the Potency was inconclusive [inhibitor, single point]. With Cc1cnc(CNc2ccnc(-c3ccccc3C)n2)cn1 the Potency was “inactive”. For O=C(OCC(O)C(O)C(O)C(SCc1ccccc1)SCc1ccccc1)c1ccccc1 (configuration not stated), the Potency was active: 29.1 µM. In the case of CC(CNS(=O)(=O)c1cc(Cl)ccc1Cl)CN(C)C (configuration not stated), the Potency is reported as “inactive”. With Cn1nnc(NC(=O)c2cccc([N+](=O)[O-])c2)n1 the Potency was “inactive”. For COc1cc(OC)cc(-c2nnc(SCC(=O)N3CCCC3)o2)c1, the Potency was “inactive”. For CC(OC(=O)c1cc(-c2cccnc2)nc2ccccc12)C(=O)Nc1ccc2ccccc2c1 (configuration not stated), the Potency was inconclusive [inhibitor, partial curve]. With COc1ccc2c(C#CCCO)c(-c3ccc(S(C)(=O)=O)cc3)sc2c1 the Potency was inconclusive [inhibitor, single point]. With O=C(c1cn(Cc2ccccc2)nc1-c1cccnc1)N1CCc2ccccc2C1 the Potency was inconclusive [inhibitor, single point]. In the case of N#Cc1ccc(CSc2nc3c(c(=O)[nH]2)CCCC3)cc1, the Potency is reported as inconclusive [inhibitor, single point].
